# According to PubChem BioAssay (NCI):
#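 Compound exposure: 48 hours, 5 concentrations, 96-well plates. TGI is the concentration that stops growth completely.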
# Legend:
# Test in all cases: NCI-60 cell line screen, 48 h
# [1] = test system: 786-0 renal
# [2] = test system: A498 renal
# [3] = test system: A549 NSCLC
# [4] = test system: ACHN renal
# [5] = test system: BT-549 breast
# [6] = test system: CAKI-1 renal
# [7] = test system: CCRF-CEM leukemia
# [8] = test system: COLO 205 colon
# [9] = test system: DU-145 prostate
# [10] = test system: EKVX NSCLC
# [11] = test system: HCT-116 colon
# [12] = test system: HCT-15 colon
# [13] = test system: HL-60(TB) leukemia
# [14] = test system: HOP-62 NSCLC
# [15] = test system: HS 578T breast
# [16] = test system: HT29 colon
# [17] = test system: IGROV1 ovarian
# [18] = test system: K-562 leukemia
# [19] = test system: KM12 colon
# [20] = test system: LOX IMVI melanoma
# [21] = test system: M14 melanoma
# [22] = test system: MALME-3M melanoma
# [23] = test system: MCF7 breast
# [24] = test system: MDA-MB-231 breast
# [25] = test system: MDA-MB-435
# [26] = test system: MDA-N
# [27] = test system: MOLT-4 leukemia
# [28] = test system: NCI-H226 lung
# [29] = test system: NCI-H23 lung
# [30] = test system: NCI-H522 lung
# [31] = test system: NCI/ADR-RES ovarian
# [32] = test system: OVCAR-3 ovarian
# [33] = test system: OVCAR-4 ovarian
# [34] = test system: OVCAR-5 ovarian
# [35] = test system: OVCAR-8 ovarian
# [36] = test system: PC-3 prostate
# [37] = test system: RPMI-8226 leukemia
# [38] = test system: RXF 393 renal
# [39] = test system: SF-268 CNS
# [40] = test system: SF-295 CNS
# [41] = test system: SK-MEL-2 melanoma
# [42] = test system: SK-MEL-28 melanoma
# [43] = test system: SK-MEL-5 melanoma
# [44] = test system: SK-OV-3 ovarian
# [45] = test system: SN12C renal
# [46] = test system: SNB-19 CNS
# [47] = test system: SNB-75 CNS
# [48] = test system: SR leukemia
# [49] = test system: SW-620 colon
# [50] = test system: T-47D breast
# [51] = test system: TK-10 renal
# [52] = test system: U251 CNS
# [53] = test system: UACC-257 melanoma
# [54] = test system: UACC-62 melanoma
# [55] = test system: UO-31 renal
structure (smiles),measurement,setting,value
CN1C2CCC1CC(OC(=O)C(O)c1ccccc1)C2 (stereo not given),TGI,[1],> 100 µM
same,TGI,[2],> 100 µM
same,TGI,[3],> 100 µM
same,TGI,[4],> 100 µM
same,TGI,[5],> 100 µM
same,TGI,[6],> 100 µM
same,TGI,[7],> 100 µM
same,TGI,[8],> 100 µM
same,TGI,[9],> 100 µM
same,TGI,[10],> 100 µM
same,TGI,[11],> 100 µM
same,TGI,[12],> 100 µM
same,TGI,[13],> 100 µM
same,TGI,[14],> 100 µM
same,TGI,[15],> 100 µM
same,TGI,[16],> 100 µM
same,TGI,[17],> 100 µM
same,TGI,[18],> 100 µM
same,TGI,[19],> 100 µM
same,TGI,[20],> 100 µM
same,TGI,[21],> 100 µM
same,TGI,[22],> 100 µM
same,TGI,[23],> 100 µM
same,TGI,[24],> 100 µM
same,TGI,[25],> 100 µM
same,TGI,[26],> 100 µM
same,TGI,[27],> 100 µM
same,TGI,[28],> 100 µM
same,TGI,[29],> 100 µM
same,TGI,[30],> 100 µM
same,TGI,[31],> 100 µM
same,TGI,[32],> 100 µM
same,TGI,[33],> 100 µM
same,TGI,[34],> 100 µM
same,TGI,[35],> 100 µM
same,TGI,[36],> 100 µM
same,TGI,[37],89.1 µM
same,TGI,[38],> 100 µM
same,TGI,[39],> 100 µM
same,TGI,[40],> 100 µM
same,TGI,[41],> 100 µM
same,TGI,[42],> 100 µM
same,TGI,[43],> 100 µM
same,TGI,[44],> 100 µM
same,TGI,[45],> 100 µM
same,TGI,[46],> 100 µM
same,TGI,[47],> 100 µM
same,TGI,[48],> 100 µM
same,TGI,[49],> 100 µM
same,TGI,[50],> 100 µM
same,TGI,[51],> 100 µM
same,TGI,[52],> 100 µM
same,TGI,[53],> 100 µM
same,TGI,[54],> 100 µM
same,TGI,[55],> 100 µM
